Laboratory results published in the supplement of paper PMC7826260.
The list shows a part of the results. Each Rep nickase domain was tested in vitro on the same pool of single strands (3 µM enzyme, 1 h, 37 °C); shown is the middle of each 90-letter strand. A value is the log2 ratio of uncut reads to the pool without enzyme; strong cutting gives strongly negative numbers. There is no active / inactive call. Reads are scaled to the total; values above 0 arise when much of the pool is cut.

What follows are sequences tested on T1, Rep nickase domain of tomato golden mosaic virus (assay: uncleaved DNA left, log2 of reads against the no-enzyme library (log2 ratio); higher = less cleavage (more negative = more Rep cleavage of the k-mer); sequences stand for … in CTCGTCCG…ACCGGAGA).
T1 sequence (protein, residues 1-124, tag omitted): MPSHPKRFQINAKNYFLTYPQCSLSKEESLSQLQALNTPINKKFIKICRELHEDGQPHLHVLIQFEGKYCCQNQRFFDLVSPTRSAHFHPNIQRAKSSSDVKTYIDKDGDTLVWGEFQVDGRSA
Procedure: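 A pool of 90-nt single-stranded DNAs with seven random bases just before the constant AC of the nick site (name = the seven bases) was cut by 3 µM recombinant His6-SUMO-tagged Rep nickase domain (300 nM DNA, 50 mM HEPES pH 8.0, 50 mM NaCl, 1 mM MnCl2, 1 h, 37 °C, three replicates). Uncut DNA was amplified and sequenced.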

Row | Sequence | uncleaved DNA left (log2)
1 | GCTCCTA | -0.0188
2 | TGTCGCT | -0.168
3 | ATACGGG | 0.0881
4 | GGCATGC | -0.191
5 | TATACGC | -0.0866
6 | ATACCTG | -0.0342
7 | CACTTAA | -0.215
8 | TTACGTT | -0.0954
9 | CTAGCAG | 0.0567
10 | TCGGTTT | -0.0635
11 | CAGGATC | 0.255
12 | CTGAACA | -0.0107
13 | CAGCCGG | 0.182
14 | CGACTAA | -0.108
15 | CATTGTA | 0.00414
16 | ATCACGC | -0.0381
17 | GGGTTAC | -0.0152
18 | AAGGCTG | 0.0919
19 | ACGTTTG | 0.0416
20 | CTCCGGT | 0.0347

Row | Sequence | uncleaved DNA left (log2)
21 | AAGTGGG | 0.0629
22 | CGACCCG | -0.0951
23 | GAAGACT | 0.174
24 | CCAATCC | -0.0771
25 | TACCCTG | -0.0701
26 | TTCAGTG | -0.0451
27 | GACTTCC | 0.0254
28 | ACAGTCA | -0.0662
29 | CAACCGC | 0.0113
30 | GTGGCGT | -0.0471
31 | GGTTCCA | 0.115
32 | GTTACGT | 0.122
33 | ATCTTAC | -0.128
34 | CACAACA | -0.0589
35 | TTCAGTA | -0.168
36 | GGTCAAT | 0.0999
37 | GTTACCA | 0.163
38 | AACAATC | -0.0377
39 | TGGACGA | -0.00433
40 | TATCCGT | -0.0291
